First the molecules themselves.
B1: tRNA (parent)
chain: CUCUCGGUAGCCAAGUUGGUUUAAGGCGCAAGACUUUAAUUUAUCACUACGAAAUCUUGAGAUCGGGCGUUCGACUCGCCCCCGGGAGAUUUUUUCCUCGAGCAA

Variants at the floor of the assay are shown more often than the library holds them.

The values that follow come from the RNAGym collection of RNA variant scans (doi:10.1101/gad.245936.114).

Variants of B1 are the subject of this data set. Put plainly: nonsense suppression (GFP-seq) (ratio to wild type); higher = more function; SUP4oc tRNA, yeast GFP reporter sort-seq. In short, it runs like this:
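Yeast carrying genome-integrated SUP4oc tRNA variants from a library with ~3% random mutations were grown in raffinose/galactose medium with 80 mg/L adenine. Each strain also carried a galactose-driven GFP ochre reporter and RFP. Cells were sorted into GFP/RFP bins, and each bin was Illumina-sequenced (phred ≥30). Nonsense suppression (GFPSEQ) is the bin median GFP/RFP, weighted by each variant's estimated cell share per bin, relative to wild-type SUP4oc; variants needed ≥100 reads and ≥30 cells.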
As for U4C A31C, the nonsense suppression was at most 0.026.
For the variant G15A C29U U55G U76C, the nonsense suppression was at most 0.026.
Consider G7C A62C, for which the nonsense suppression is at most 0.026.
For the variant U22G G85U, the nonsense suppression is 0.796.
For C27G A30U G61C A89U the value was at most 0.026; for G32A A60U C77G, at most 0.026.
With C11A A74G, the nonsense suppression was at most 0.026.
Consider A33G C34G G73C C83G, for which the nonsense suppression is at most 0.026.
Take C27G C29G A33U: the nonsense suppression was at most 0.026.
For the variant C3A U35G, the nonsense suppression is at most 0.026.
To U70A U71G belongs at most 0.026; to A13G G15U A31U, at most 0.026; to A24C U58A, at most 0.026.
With A54U G66A G69C, the nonsense suppression was at most 0.026.
For C5A G7A the value was at most 0.026; for A31G C56U A60U G69U, at most 0.026.
In the case of A62G U70C U71G, the nonsense suppression was at most 0.026.
For G7U A31U, the nonsense suppression was at most 0.026.
Consider U21G A89G, for which the nonsense suppression is 0.0399.
Regarding U2C C11A U71G, the nonsense suppression was at most 0.026.
For A24G G66A the value was at most 0.026; for U57G A60U, at most 0.026; for G26A G59A U63C, at most 0.026.
For C3U U21A the value was 0.196; for C1G A30U A31G, at most 0.026; for U2C G66C, at most 0.026.
Turning to G10U G61A A62U U76C C77G G85U, the nonsense suppression is at most 0.026.
For G10A G85U the value was at most 0.026.
For A14G A24G G61A A62G G86A, the nonsense suppression is at most 0.026.
As for G15U U22A C29G G67A U70C, the nonsense suppression is at most 0.026.
Regarding U4G U8A G32U U55G, the nonsense suppression was at most 0.026.
Consider A9G C11G A31G G61A G86A A89C, for which the nonsense suppression is at most 0.026.
C29A A31U C34U C56A: the nonsense suppression is at most 0.026.
For A62C C68G, the nonsense suppression is at most 0.026.
To A14G G26C belongs at most 0.026; to U58G G88A, at most 0.026.
For the variant G67U C77G, the nonsense suppression was at most 0.026.
For the variant U20A G26C U63A, the nonsense suppression is at most 0.026.
For G6A C11U G66A C81U, the nonsense suppression was at most 0.026.
For the variant U35A C79U, the nonsense suppression is at most 0.026.
As for A24C G67C C83G, the nonsense suppression is at most 0.026.
For U20G C56G the value was at most 0.026.
On to C68G G69U U71C, for which the nonsense suppression is at most 0.026.
Turning to A9U A30C G66U, the nonsense suppression is at most 0.026.
For U8G G15A G78C the value was at most 0.026; for A23C G59U G61A, at most 0.026.
Turning to C11A G59U G61C, the nonsense suppression was at most 0.026.
For C11U A33G U70C, the nonsense suppression is at most 0.026.
On to A30G U57A C68G U71A C80G, for which the nonsense suppression was at most 0.026.
For the variant C11U G61C A87U, the nonsense suppression is at most 0.026.
For U58G G65C C80A G86U G88U the value was at most 0.026; for A31G U35G U70G, at most 0.026; for G6U U70G G73U C82U, at most 0.026.
For G10C U16A U22C U76G the value was at most 0.026; for A24C C64G, at most 0.026.
Turning to C82A A87G, the nonsense suppression was at most 0.026.
Take G26U C27G: the nonsense suppression was at most 0.026.
As to U22G U35C U55A U63A, the nonsense suppression is at most 0.026.
To U8G G28U belongs at most 0.026; to C11A A14G C79U C83G, at most 0.026.
On to A9U C29G G66U A74G, for which the nonsense suppression was at most 0.026.
Regarding C12A A62C U76G, the nonsense suppression is at most 0.026.
To G18U A33U belongs at most 0.026; to C11U C77U, at most 0.026; to A54G G67U, at most 0.026.
For C5A G6A U16G the value was at most 0.026; for G69U U76G G88U, at most 0.026.
Take C27A G61U A62C: the nonsense suppression is at most 0.026.
To G6C G19C belongs at most 0.026; to A24U G65C A87G, at most 0.026; to C29G G69U G88U, at most 0.026.
Consider G67U C81U C83A, for which the nonsense suppression was at most 0.026.
Take G25U A74C: the nonsense suppression was at most 0.026.
On to U17A U71A A87U, for which the nonsense suppression was at most 0.026.
As for U2A G32C C79G, the nonsense suppression was at most 0.026.
For the variant C1U A13C U76C, the nonsense suppression is at most 0.026.
As for A23G G69A, the nonsense suppression is at most 0.026.
On to G7U A74G, for which the nonsense suppression is at most 0.026.
As for A9U A14C G15C A54C C82U, the nonsense suppression was at most 0.026.
With C1U G15C G19A A87C, the nonsense suppression was at most 0.026.
Regarding A13G U70A G84C, the nonsense suppression was at most 0.026.
On to C5A C29U A89G, for which the nonsense suppression was at most 0.026.
Turning to G10A U22A C80A C83U G88C, the nonsense suppression was at most 0.026.
Consider C1A G61C, for which the nonsense suppression is at most 0.026.
Regarding C1U G32U U55A A62C G67C, the nonsense suppression is at most 0.026.
For A14U U55A A87U the value was at most 0.026; for A14C, at most 0.026; for A9G G19C, at most 0.026.
Turning to A9G G19U, the nonsense suppression is at most 0.026.
Take A14U U55C G66U C83A: the nonsense suppression was at most 0.026.
Turning to A31C G32C, the nonsense suppression was at most 0.026.
For U22A G25U C27G G32U A33G G69U, the nonsense suppression is at most 0.026.
Regarding A30G U35G G84U A87U, the nonsense suppression is at most 0.026.
To G10A A33C C34U belongs at most 0.026; to G6A A23U, at most 0.026; to G32U U71C G84A, at most 0.026.
Regarding G26C U55A, the nonsense suppression was at most 0.026.
For the variant G84A A89C, the nonsense suppression is at most 0.026.
For the variant C1U C34A A87C, the nonsense suppression is at most 0.026.
Take C1A C12G A23C: the nonsense suppression was at most 0.026.
To A13U C34U A60C G73A belongs at most 0.026.
C1A U17G G88A: the nonsense suppression was at most 0.026.
For the variant C64G G66C, the nonsense suppression was at most 0.026.
As to A13G G26A U76C, the nonsense suppression was at most 0.026.
Consider U55A C68A, for which the nonsense suppression is at most 0.026.
As for U20G A23U C77G, the nonsense suppression was at most 0.026.
On to C1G G19C G73C, for which the nonsense suppression was at most 0.026.
For the variant C5A C12A G88A, the nonsense suppression was at most 0.026.
On to A14G U63A, for which the nonsense suppression was at most 0.026.
U2C U16G C27A: the nonsense suppression is at most 0.026.
For C5U A13U A24C G59U, the nonsense suppression is at most 0.026.
Turning to U8C A24U, the nonsense suppression is at most 0.026.
On to A24G C29A, for which the nonsense suppression was at most 0.026.
For the variant U20C U21G G61A, the nonsense suppression is at most 0.026.
Take U21C G66U: the nonsense suppression was at most 0.026.
To U55A U71A G73A belongs at most 0.026; to A13C G18U G61C, at most 0.026; to G67U C79U, at most 0.026.
Consider U2C G25U U35G C75A, for which the nonsense suppression is at most 0.026.
To U21G C34U belongs at most 0.026; to G15U G84C, at most 0.026.
Regarding A24U U76G, the nonsense suppression was at most 0.026.
In the case of G10A U63A C80U, the nonsense suppression was at most 0.026.
In the case of C3A U17A G59U, the nonsense suppression is at most 0.026.
U63C C75U: the nonsense suppression is 1.1.
For the variant C5U G7C, the nonsense suppression was at most 0.026.
G7A G25U: the nonsense suppression is at most 0.026.
Take U17C U63A C72G: the nonsense suppression was at most 0.026.
Turning to A9C U58G G61U, the nonsense suppression was at most 0.026.
For C12G G28C U70G G88A the value was at most 0.026; for C56U U57C U71C C83U G88C, at most 0.026.
C12G A23G: the nonsense suppression was at most 0.026.
For C27U G84C the value was at most 0.026; for A14G A62G C75U, at most 0.026.
For the variant A9U A13C U57C C68G A87U, the nonsense suppression is at most 0.026.
To G10U G66A C79A A87C belongs at most 0.026; to C3G U57C G78C, at most 0.026.
With G10C U22G, the nonsense suppression was at most 0.026.
For G15C C29G the value was at most 0.026; for G65C G86C, at most 0.026; for C12A G69C A74U, at most 0.026.
Turning to U17A U63A U70C G73C C77G, the nonsense suppression is at most 0.026.
As to A14C C68A A87U, the nonsense suppression was at most 0.026.
For A23C C68G C79U, the nonsense suppression was at most 0.026.
Regarding C5G A74C G88A, the nonsense suppression was at most 0.026.
Regarding C12G A54G, the nonsense suppression is at most 0.026.
To C3U C11A G15U U55G A62U belongs at most 0.026; to G7A U8G A54C C81U A87G, at most 0.026; to C27A A33G U35A U57A G65A A87U, at most 0.026.
For C1G C12U G25C U63A the value was at most 0.026; for U8A C29G U71C C72U, at most 0.026; for C12G A14U U16A, at most 0.026.
Turning to G10C G26A G65A A87U, the nonsense suppression was at most 0.026.
With U22C A31C, the nonsense suppression was at most 0.026.
Consider G65U U70G U76G C79A, for which the nonsense suppression is at most 0.026.
To U2A U35A C56A G66A G69A belongs at most 0.026.
C27A G32A A54U U58G: the nonsense suppression was at most 0.026.
For C29A G59C, the nonsense suppression is at most 0.026.
For the variant U4G G19A U20G, the nonsense suppression is at most 0.026.
Regarding A9U A23U A62C G67U, the nonsense suppression was at most 0.026.
On to U8A G19C C34G, for which the nonsense suppression was at most 0.026.
On to G26C A87G, for which the nonsense suppression was at most 0.026.
Take C3G A9G G73C: the nonsense suppression was at most 0.026.
C1G U17A G69C C81G: the nonsense suppression was at most 0.026.
As to C11A U71C, the nonsense suppression is at most 0.026.
With U57G A62C, the nonsense suppression was at most 0.026.
As to U35G G65C, the nonsense suppression is at most 0.026.
